Among the data in PMC6212790 are binding signal values, retold here.

The list shows a part of the results. At the low end of the ranking the order means little.

This assay concerns the target T1, GST-Rok (full length) (UniProt O34857).
T1 sequence: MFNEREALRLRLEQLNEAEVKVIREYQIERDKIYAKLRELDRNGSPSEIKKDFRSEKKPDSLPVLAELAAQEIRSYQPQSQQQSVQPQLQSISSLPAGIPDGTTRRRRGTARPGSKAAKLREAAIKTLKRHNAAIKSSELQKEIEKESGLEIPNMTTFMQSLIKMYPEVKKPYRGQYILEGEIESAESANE
Briefly: protein binding microarray.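 Further: rank score from −0.5 (least bound) to 0.5 (best bound).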 To be noted: Rok is a gene silencer of Bacillus subtilis; high values mean tight binding; most listed sequences are background and not binding sites; double strand, one strand shown.
In turn, GGAAGAGA had a binding signal of -0.12 E-score.
GAAACCTC had a binding signal of -0.134 E-score.
Turning to GCAAATGC, the binding signal is -0.0517 E-score.
As for ACTAAGGG, the binding signal is -0.125 E-score.
The sequence CAAAAATA displayed a binding signal of 0.208 E-score.
In turn, ATAGCCCA showed a binding signal of 0.0622 E-score.
In turn, GGTAATGA came in with a binding signal of -0.0157 E-score.
The figure for CTGTATCA is 0.0787 E-score; for CTACAGGA it is -0.04 E-score.
To CCTAATGA belongs -0.219 E-score; to GGAGTTAA, -0.0809 E-score; to AATGTGTA, 0.248 E-score.
As for GCAGTTGA, the binding signal was -0.00855 E-score.
To ACGGTGGG belongs -0.168 E-score; to ATGCGGCC, -0.295 E-score.
For AATAGTCC, the binding signal worked out at 0.052 E-score.
With AAATTGCC, the binding signal amounted to 0.052 E-score.
Sequence ATAGACTA had a binding signal of 0.186 E-score.
CCTCGCGA displayed a binding signal of -0.307 E-score.
Turning to GAGAACAC, the binding signal came out at 0.105 E-score.
For the sequence AACGCCTA, the binding signal is -0.101 E-score.
On to ATCACGCA, for which the binding signal came to 0.0255 E-score.
AATGATTG displayed a binding signal of -9.44e-05 E-score.
The sequence AACTTCGC returned a binding signal of 0.196 E-score.
ATACTGCC registered a binding signal of -0.0341 E-score.
Sequence TGTATACA gave a binding signal of 0.351 E-score.
The figure for CTAATGGC is -0.143 E-score; for CCAGCGAG it is -0.0971 E-score; for ACACCCGA it is -0.121 E-score.
As for TAATTGTA, the binding signal came out at 0.329 E-score.
To CTTAATGA belongs -0.158 E-score; to CATCTCGC, -0.0694 E-score; to ATAAGAAA, 0.141 E-score.
The sequence AATACGTA came in with a binding signal of 0.331 E-score.
To CTCGTCAC belongs -0.0909 E-score.
Consider CCAAACTA, for which the binding signal stood at 0.364 E-score.
Consider CTTTCCAC, for which the binding signal was -0.065 E-score.
As for CCGTGTTA, the binding signal worked out at 0.139 E-score.
In turn, GCGATCCA returned a binding signal of -0.132 E-score.
As to GCTGAAAA, the binding signal is -0.146 E-score.
Take CTTTGGCA: the binding signal is -0.203 E-score.
ATCCCGCA yielded a binding signal of -0.0218 E-score.
In turn, AACGACAA gave a binding signal of 0.177 E-score.
As to GCCGAAGA, the binding signal was -0.0924 E-score.
The sequence CGCCTTCC came in with a binding signal of -0.298 E-score.
The figure for ATTCTCTG is -0.0409 E-score; for GACTTGAC it is -0.201 E-score; for GTCGAGAA it is 0.12 E-score.
For AGTATTTG, the binding signal amounted to 0.31 E-score.
ATGAATAG registered a binding signal of 0.0694 E-score.
GTGAGAAC yielded a binding signal of 0.235 E-score.
The figure for GAAAAAGC is -0.0987 E-score; for ACGCGAGC it is 0.0365 E-score.
Turning to ACCGCCAG, the binding signal is -0.207 E-score.
The figure for AGCAAAAA is -0.141 E-score; for CGGCGGAA it is -0.346 E-score; for ATTAGGAA it is -0.0892 E-score.
To CAAAGCTG belongs -0.0568 E-score.
Sequence ATGCCTGC registered a binding signal of 0.00111 E-score.
AATGGATC displayed a binding signal of -0.0454 E-score.
CGCCTATA: the binding signal was 0.00134 E-score.
The figure for ATAATACC is 0.174 E-score.
In turn, CTTCAAAC returned a binding signal of -0.0389 E-score.
Regarding ATCAACTC, the binding signal was found to be 0.07 E-score.
The sequence ACGCGAAG gave a binding signal of -0.115 E-score.
The figure for AATGGTGC is -0.156 E-score; for TCGCCACA it is -0.0289 E-score.
CCCAATAA came in with a binding signal of -0.0545 E-score.
The figure for GCCGCGAC is -0.351 E-score; for ACAACACA it is 0.0629 E-score; for CCCTTTGC it is -0.417 E-score.
As for CGGCTTTC, the binding signal is -0.235 E-score.
CCCAACAG: the binding signal is -0.0786 E-score.
Turning to CCCGTAGA, the binding signal is -0.0912 E-score.
AGCGTAAC showed a binding signal of 0.0187 E-score.
In turn, ATATTCCG showed a binding signal of 0.263 E-score.
The sequence GGGGGGGA returned a binding signal of -0.456 E-score.
In turn, AAGGGAGG returned a binding signal of -0.323 E-score.
ACGTGCTC gave a binding signal of -0.158 E-score.
CGTATCGA returned a binding signal of 0.0045 E-score.
Consider GAGCGGGA, for which the binding signal is -0.356 E-score.
Sequence AGGAAAGA yielded a binding signal of -0.0268 E-score.
GGCAGCAC displayed a binding signal of -0.241 E-score.
The sequence CTAGGTTA yielded a binding signal of -0.132 E-score.
The figure for CCGATACA is 0.103 E-score; for GGAATAAA it is 0.107 E-score; for CGGAACTC it is -0.02 E-score.
Consider GTAACGTA, for which the binding signal worked out at 0.0638 E-score.
ACCGCTCC showed a binding signal of -0.253 E-score.
Take CATCTTGA: the binding signal is -0.0688 E-score.
CCCTGTTA: the binding signal is -0.156 E-score.
Sequence CCTTACCA displayed a binding signal of -0.205 E-score.
GACGGGAA yielded a binding signal of -0.272 E-score.
In the case of ACCTGCGA, the binding signal was 0.00856 E-score.
To GCAGCGGA belongs -0.0182 E-score; to CAACAGGA, -0.111 E-score; to ATGAATGA, 0.164 E-score.
ACACCAAA had a binding signal of 0.217 E-score.
The sequence CCTACGGC returned a binding signal of -0.167 E-score.
Take AATTCAAT: the binding signal came out at 0.175 E-score.
AATTGAGA registered a binding signal of -0.0173 E-score.
To CAAGATGA belongs -0.0205 E-score.
To ATCCGATA belongs 0.0421 E-score.
In turn, AACCCGCT returned a binding signal of -0.3 E-score.
TATTAGGA came in with a binding signal of 0.0627 E-score.
The figure for GAGCGTCA is -0.263 E-score; for CGCACGCC it is -0.233 E-score.
As to GACCCGCC, the binding signal is -0.294 E-score.
The figure for ATATTGAC is 0.129 E-score.
The figure for ATTCCGTG is 0.0566 E-score; for ATTAAGTA it is 0.347 E-score; for CGTGGTGC it is -0.343 E-score.
The figure for AGCAAATG is 0.0985 E-score; for CGACGCAG it is -0.163 E-score.
In turn, CATCGCCC had a binding signal of -0.345 E-score.
Consider ATCACGGC, for which the binding signal is -0.0249 E-score.
AACTTCTG showed a binding signal of 0.221 E-score.
The figure for AGGCAGAC is -0.257 E-score; for CTCGGCGC it is -0.293 E-score; for CTGAAATA it is 0.125 E-score.
In the case of AATACCCG, the binding signal was -0.0221 E-score.
Sequence GTATTTTA had a binding signal of 0.411 E-score.
As to GCCCAATA, the binding signal amounted to 0.0351 E-score.
Consider ACCAGAGG, for which the binding signal is -0.0915 E-score.
Sequence AAACGCTA had a binding signal of 0.21 E-score.
The figure for TCCTAACA is 0.0481 E-score; for AGTGGTGG it is -0.162 E-score; for TCGCTCAA it is 0.0119 E-score.
The sequence AGGTCTAA displayed a binding signal of 0.0149 E-score.
Consider AAGGTCTC, for which the binding signal was -0.199 E-score.
Turning to ACCTGTCA, the binding signal stood at 0.0239 E-score.
CGTGAATA gave a binding signal of 0.0233 E-score.
As for ACTTACAT, the binding signal turned out to be 0.349 E-score.
CAACCGGG came in with a binding signal of -0.357 E-score.
AGACCTCG had a binding signal of -0.163 E-score.
Sequence CGGTAGCA registered a binding signal of 0.23 E-score.
The figure for GAGAACCC is -0.287 E-score.
To GCTTATCA belongs -0.0929 E-score.
CAGGTGAA displayed a binding signal of -0.105 E-score.
Turning to AATTCGAC, the binding signal is 0.0657 E-score.
Regarding ATCCCTCC, the binding signal is -0.317 E-score.
Sequence CTGGTACC gave a binding signal of 0.0466 E-score.
The figure for GGACTCAA is -0.137 E-score; for TCGAGAGA it is 0.172 E-score.
To CATTGACG belongs 0.0483 E-score; to CAACCCTG, -0.0639 E-score; to CCGACAAC, -0.067 E-score.
AGAGACAT: the binding signal came to 0.0316 E-score.
The figure for ATGGACTG is -0.0223 E-score; for GCTGATCC it is -0.104 E-score; for AGGGCCTG it is -0.274 E-score.
As to TCCCATAA, the binding signal is -0.0253 E-score.
Take CAAGTCGG: the binding signal is -0.034 E-score.
To CGTGCTGA belongs -0.0953 E-score; to AGTCTTGA, 0.0243 E-score.
For the sequence CAAAAACG, the binding signal was determined as 0.0375 E-score.
ATGTATGG yielded a binding signal of 0.305 E-score.
ACGAGATG registered a binding signal of -0.0516 E-score.
To GGTAAACA belongs 0.232 E-score; to GCTTTTCC, -0.154 E-score; to CGTATAGA, 0.0326 E-score.
Take CATCGCTA: the binding signal is 0.0612 E-score.
Regarding AGGAATAA, the binding signal was found to be 0.101 E-score.
With ATTAGGAC, the binding signal came out at 0.0342 E-score.
To ACACTCCT belongs -0.0653 E-score; to GTAGTGCA, 0.0847 E-score.
For the sequence CCTTAAGG, the binding signal was -0.289 E-score.
On to GACATATA, for which the binding signal is 0.277 E-score.
For ACATCGCT, the binding signal was -0.196 E-score.
Sequence ACGGCCAT came in with a binding signal of -0.0865 E-score.
To CGCTACAG belongs 0.00389 E-score; to CTCCATCA, -0.0646 E-score.
